± gives the standard deviation of the averaged measurements. Some of the results follow.
Tested on: PfAP2-G AP2 domain (GST-tagged)
Assay: gcPBM binding intensity (ln(normalized median fluorescence intensity)); higher = stronger DNA binding
Outline: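 The highest Masliner-normalised natural-log median intensity across replicate spots of either probe orientation is reported as binding intensity. GST-tagged P. falciparum DNA-binding domains expressed in E. coli were applied for 1 h to an Agilent 4 × 180k array of primer-extended double-stranded 36-bp intergenic genomic probes plus negative controls, and bound protein was detected with Alexa488 anti-GST antibody and scanned at 488 nm.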

Row | Sequence | gcPBM binding intensity (ln)
1 | ATTTTCCTTTAATTATGTACTTATGTAATAATAATG [XGTACX_site2612] | 11.3 ± 0.91
2 | TGTATGATTATGTTGTGTACGTAAAATATGAAAAAT [XGTACX_site1720] | 11.5 ± 0.89
3 | GTATCATAAAAGTATACACACATACATACATATGTA [CACACA_site5456] | 10.3 ± 0.19
4 | GCACACATATAATTAAACATATATTTGTATTATTTT [GTGCAC_negctrl_site327] | 9.61 ± 0.27
5 | AATATTTATGGGTGCACACAAACATACATATATATA [CACACA_site3395] | 10.7 ± 0.5
6 | ATGTTGAAAGGAAAAAATAATAAAATCGATATATTA [CACACA_negctrl_site549] | 9.66 ± 0.15
7 | AAAAAAAAGAATAGAGCATGCAAAATATATGAAATA [TGCATGCA_site933] | 9.57 ± 0.34
8 | CCTTACTTCTTATAAAGTACCCAATGATATACATTA [XGTACX_site1554] | 11 ± 0.64
9 | TATCCTAATGCTACCACACACACAAAAACAAATAAT [CACACA_site2609] | 10.5 ± 0.45
10 | TTTTAATGTATATTTTGTACGTATTATTAATATTCG [XGTACX_site8453] | 11.3 ± 0.81
11 | TTTTTAATTTTGTGGGTGCTTTCGTGTTATTATATA | 10.29 ± 0.085
12 | TTTTAAATTGGAGTGGGCAGATTGATATTATTCTTC [GTGCAC_negctrl_site191] | 10.2 ± 0.14
13 | AAAAATAAAATATATACACACATATATATATATATA [CACACA_site2943] | 10 ± 0.49
14 | ACATATATATATATGTGTACATATTTATACAACAAT [XGTACX_site6660] | 11.6 ± 0.78
15 | TACATAAATTAAAACACACACACACTAGAAAAAAAA [CACACA_site5278] | 10.2 ± 0.28
16 | TTTTACTAAATATATACACACATTATACAGATATAT [CACACA_site5765] | 10.2 ± 0.27
17 | AGGAAATTTGTTATTGCACACAAATTTTTCTTTTTT [CACACA_site8732] | 9.87 ± 0.071
18 | AATGTCAGTATGCGAGGTACACGTATAAAAATTACA [XGTACX_site4109] | 11.3 ± 0.72
19 | TATTATAATAAACCTATACACACATAAATAAATAAA [GTGCAC_negctrl_site627] | 10.01 ± 0.014
20 | TAAAAAATAAAAATTGCACACTAAAAAATTACGCAC [CACACA_site9129] | 9.92 ± 0.071
21 | TATATATATATACCAACACACATACATATATATATA [CACACA_site8530] | 10.3 ± 0.77
22 | ACATATATTGTACATACACACCTATATAAATATCCT [CACACA_site7503] | 11.3 ± 0.73
23 | TATGTATGTATGTATGCATGTGTAACACCTAAATAT [TGCATGCA_site361] | 10.3 ± 0.2

Row | Sequence | gcPBM binding intensity (ln)
24 | CCATATTTCATTAATGAACACACAAAGAGGTATATA [CACACA_site8431] | 10.24 ± 0.092
25 | AAGTATAAATTAAAATGTACTTATAAAAAAAAAGAA [XGTACX_site7028] | 11.2 ± 0.72
26 | TGTCACATAATTTATGCACACAATGATTATGCTTAA [CACACA_site2358] | 9.975 ± 0.092
27 | ATAAGATAGGCATATACACACATTTATTTACAGATA [CACACA_site5754] | 9.915 ± 0.064
28 | TATATATCCTCTGAATGTACTTGTTTAATAATGTAG [XGTACX_site4332] | 11.2 ± 0.81
29 | TGTGTAATATTCTGTTGTACATAACTCATAAATAAA [XGTACX_site5308] | 11.2 ± 0.83
30 | ATAATATAATATATATGTACACATCCTTTTTGTGTA [XGTACX_site2879] | 11.4 ± 0.76
31 | TAAAAGTAAAAAGGTAGTACCTAAATAATATATATA [XGTACX_site8399] | 11.6 ± 0.98
32 | AATAAATTTAGACACACACACACATATAAATAAATA [CACACA_site6531] | 10.1 ± 0.13
33 | TATACGTGAATGACAGTGCATTTCAAAAGTATAAAA [GTGCAC_site9887] | 10.035 ± 0.007
34 | GAATAAAAAATTGGCACACATAAATATATGGATATA [CACACA_site3047] | 10.3 ± 0.26
35 | TTCAACATATTAAAAAGTACAGAATATAACATTATA [XGTACX_site1361] | 11.3 ± 0.81
36 | ATTATTTATTTATTTTTTTTTTTTTTCTCTTTTCCT [GTGCAC_negctrl_site656] | 9.5 ± 0.071
37 | ATATCATAAATTTATGCATGTTCTTTCTTCAACTCT [TGCATGCA_site992] | 9.76 ± 0.23
38 | TTTGGGTATACACATACATGCATGTCCTTATATATA [TGCATGCA_site84] | 10.7 ± 0.39
39 | ATATTTATATAGATGTGTACATAAATATAATAACAT [XGTACX_site1681] | 11.4 ± 1
40 | ATATATATATATGTTTATTTATTTGAACGATTGTGG [CACACA_negctrl_site828] | 9.95 ± 0.37
41 | GACTCTTAAAAAATTTGTACCCACATAAATAATATA [XGTACX_site4313] | 11.1 ± 0.8
42 | AGTAGGCATATTGGTTGTACAAAAAAATTATGCACC [XGTACX_site8925] | 11.2 ± 0.66
43 | TTTTTTTTTTCTCTCGCACACATTTTTTAAAATGAG [CACACA_site2607] | 10.2 ± 0.21
44 | TATAAAAAATTAAAATTTTTCTTATTTTTTTTAGAT [TGCATGCA_negctrl_site125] | 9.46 ± 0.13
45 | ACCACCAGGAACAAAGCACATTAGGAAAAATAAAAC [XGTACX_negctrl_site228] | 10 ± 0.2
46 | TAGGAATTTAATAAATGTACATATACATAATATATA [XGTACX_site3672] | 10.9 ± 0.49

Row | Sequence | gcPBM binding intensity (ln)
47 | TTGTATAGTCTGATATGTACATATATATATATATAA [XGTACX_site4307] | 11 ± 0.67
48 | TTGAATAAATTGGAATAAATATAATAAAATAAGGAA [XGTACX_negctrl_site302] | 9.765 ± 0.049
49 | CATACATATATTATTGCACACATATAAAATACCCCC [CACACA_site9292] | 11.2 ± 0.58
50 | TACCAATAAATGAAGGTGCGTGCTTGCCTTTGCTAT | 10.1 ± 0.13
51 | AAAATACCCATTTTAGTACACACTTAAAAAATTATT [CACACA_site8966] | 11.3 ± 0.85
52 | TGGATACACAAAAATTAAAAAAATAAACAAACAAAT [GTGCAC_negctrl_site105] | 10.2 ± 0.13
53 | TCCTTACATTTTAAAACACACAAAAATTAATTGTTA [CACACA_site2313] | 9.94 ± 0.17
54 | AAAAAATAGTGGTATGCATGTCCCTTGTATTTTCTT [TGCATGCA_site587] | 10.2 ± 0.11
55 | TACTTTTATATGAATACACACAGGAATATAAATATG [CACACA_site7647] | 10.3 ± 0.28
56 | GTTTGTTTGTTTGTTCGTACATATATAAAATAAAAA [XGTACX_site4731] | 11.1 ± 0.8
57 | TATAAATATTTTATTGTACACACTTTTTATGAATGA [CACACA_site3136] | 11.5 ± 0.84
58 | AGACCTATGATATATACACACATATATTTATTTATA [CACACA_site6630] | 9.86 ± 0.014
59 | TATATAACTAAAATAACACACATATATAAAAATATA [CACACA_site7416] | 9.815 ± 0.049
60 | ATTATAACACTTATTTCATTTGTATGCCCTTTAAAA [CACACA_negctrl_site955] | 10.18 ± 0.049
61 | GTAGTTATATTAAGGGTGCTTAATTAGATTAAACAA | 10.1 ± 0.28
62 | AGAATAAATAAATATTGTACATATAAAATATATATA [XGTACX_site896] | 11 ± 0.79
63 | TTCAAATTTCCACATACACACCTTGTAGATATATAT [CACACA_site7984] | 10.055 ± 0.007
64 | AAAAACTTAATATTGACACACATTTTTAAGAATAAT [CACACA_site4291] | 10.07 ± 0.092
65 | ATTGAACACATCTATGCATGCACGGAAAAAAGTACA [TGCATGCA_site401] | 11.3 ± 0.81
66 | TATATATTTTTTAATTGTACACTTCAAAAACAAAAA [XGTACX_site5595] | 11.3 ± 0.79
67 | ATAATCAACATTAGGTGTACAAAATATGTATGTTTT [XGTACX_site6696] | 11.2 ± 0.67
68 | TATGCAATATATTATATTCTGTAAATATTATATATT [TGCATGCA_negctrl_site67] | 9.37 ± 0.13
69 | TTTTTTAAAATATGGACACACATATATATATCTGTA [CACACA_site5535] | 10.8 ± 0.51

Row | Sequence | gcPBM binding intensity (ln)
70 | AGAATTGTTGTTAAAGAATTCTTTTTTATCCTTCCC [CACACA_negctrl_site1820] | 9.75 ± 0.11
71 | TTTGTATATATTAATGTACACACATGCGTATGTTCG [CACACA_site9193] | 11.2 ± 0.73
72 | AATATAGATATAAAAAGTACATTATATATATATATA [XGTACX_site6899] | 11.3 ± 0.78
73 | AATATAAATAATATATGTACATATATATATATATAT [XGTACX_site1021] | 11.1 ± 0.61
74 | AAAGTATTCTTTACACGTACATATATATAAATATAA [XGTACX_site7557] | 11.4 ± 0.82
75 | AAAAAAAAAAAAAAGGTGCATACTTTGAATTAATAT [GTGCAC_site9401] | 10.3 ± 0.26
76 | TATACATACCATAATGCATGTAAGAACAAATAACTG [TGCATGCA_site264] | 10.1 ± 0.16
77 | ATGACTCTCAAGTTTGCACACATTTATATTTTTTAA [CACACA_site2605] | 10.2 ± 0.14
78 | ATATATATATATATATGTACTAATTAATATTTCGAG [XGTACX_site580] | 11 ± 0.78
79 | TTTAAAATACAGAAGGTGCATTTAACATATTTGTAT | 9.935 ± 0.007
80 | TATATATATAAACACACACACATATATATATATATA [CACACA_site4584] | 9.96 ± 0.32
81 | AAAAAAAAAAAATGCACACATATATTTCCATATACA [CACACA_site1471] | 10 ± 0.2
82 | TATATATATTATATATGTACATATTATATATATATA [XGTACX_site7300] | 11.2 ± 0.88
83 | ATATATTTGATAAGAGTGCACAAATACATACATACA [GTGCAC_site9704] | 10.7 ± 0.44
84 | ACAAAATTTACAAAATGTACAAAATTTACAAAGTAT [XGTACX_site6463] | 10.6 ± 0.23
85 | GTATATCATATTTCATGTACACAAAAAAATAAAAAT [XGTACX_site704] | 11.5 ± 1
86 | ACATCAAGCGGACACACACACACACCGACAGACACA [CACACA_site4361] | 11.2 ± 0.57
87 | AAAGAATCAAGAATAGTGCAAATATGTATAACCTTT | 9.76 ± 0.28
88 | ATAATACTACCTACATGTACTTATATATAAATGAAT [XGTACX_site3417] | 11.5 ± 0.89
89 | GTTTTAACAAAATTAGTGCATTTATCAATTATATAA | 9.72 ± 0.085
